Results published in PubChem BioAssay (Tox21).
Where “and” joins values, the source holds several entries; their conditions need not be identical. Equal values may be shown once. Inconclusive means that the source gave no clear call. Such entries were picked first, then a sample of the others. For some of these results: A potency beside an inconclusive call is a rough fit, not a confirmed value. Some structures have more than one record in an assay (separate samples or runs), and their calls can disagree. Calls of active or inactive are those of the source. The call rests on the fitted dose curve; in most records, active means well fitted curve in the direction sought with a large enough effect in the repeat runs; inconclusive means weak or mixed curves; inactive means no such curve, though single readings can be large; an effect the other way counts as inactive or inconclusive.

Legend:
[1] = qHTS RealTime-Glo MT Cell Viability Assay in HepG2 cells - 32 hour (AID 1224877); further: nearly all actives have a fitted effect of over 55% in size; further: potency means the concentration at half of the fitted maximal effect; on activity change, negative = cytotoxic: on the % scale 0 is the no-effect control and ±100 the full control effect
How it was run: (§1)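 Cell number in HepG2 cultures estimated from NanoLuc luminescence generated by metabolic reduction of a prosubstrate by living cells. The homogeneous, nonlytic format allowed repeated reads at 0, 8, 16, 24, 32 and 40 h of compound exposure.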

[2] = A CellTox Green Cytotoxicity Assay to monitor cytotoxicity in HepG2 cells - 40 hour (AID 1224879); further: potency means the concentration at half of the fitted maximal effect; nearly all actives have a fitted effect of over 40% in size
How it was run: (§2)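 Continuous culture of HepG2 cells with a membrane-impermeant DNA dye; rising fluorescence marks dead cells. Compound exposure lasted up to 40 h at 37 C, with reads every 8 h from 0 h.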

[3] = qHTS RealTime-Glo MT Cell Viability Assay in HEK293 cells - 24 hour (AID 1224886); further: potency means the concentration at half of the fitted maximal effect; nearly all actives have a fitted effect of over 50% in size
How it was run: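 Homogeneous bioluminescent viability format in HEK293 cells (600 cells/well). Following 5 h at 37 C/5% CO2, 23 nL compound was pintooled; the signal was measured repeatedly during 40 h incubation.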

[4] = qHTS RealTime-Glo MT Cell Viability Assay in HEK293 cells - 8 hour (AID 1224887); further: nearly all actives have a fitted effect of over 50% in size; further: potency means the concentration at half of the fitted maximal effect; on activity change, negative = cytotoxicity: top concentration of the series differs between compounds; on the % scale 0 is the no-effect control and ±100 the full control effect
How it was run: (§3)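 qHTS format; HEK293 cells with NanoLuc/prosubstrate reagent, 37 C/5% CO2 for 5 h pre-dosing; compounds 23 nL in DMSO; luminescence at each time point reflects viable cells.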

[5] = A CellTox Green Cytotoxicity Assay to monitor cytotoxicity in HepG2 cells - 8 hour (AID 1224890); further: on the % scale 0 is the no-effect control and ±100 the full control effect; nearly all actives have a fitted effect of over 45% in size
How it was run: as §2

[6] = A CellTox Green Cytotoxicity Assay to monitor cytotoxicity in HEK293 cells - 32 hour (AID 1224881); further: potency means the concentration at half of the fitted maximal effect; nearly all actives have a fitted effect of over 40% in size
How it was run: (§4)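 Each value comes from one timepoint of a single continuous run in which HEK293 cells with CellTox Green were exposed to compound for up to 40 h at 37 C, dye fluorescence rising with cell death.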

[7] = qHTS assay to identify small molecule antagonists of the androgen receptor (AR) signaling pathway using the MDA cell line in the presence of 0.5 nM R1881 - cell viability counter screen (AID 1259242); further: potency means the concentration at half of the fitted maximal effect; nearly all actives have a fitted effect of over 45% in size
How it was run: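 Fluorescence from CellTiter-Fluor, which reports protease activity of live cells, was read 30 min after reagent addition to MDA-kb2 cells that had been incubated 16 hr with compound and 0.5 nM R1881.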

[8] = qHTS RealTime-Glo MT Cell Viability Assay in HepG2 cells - 16 hour (AID 1224885); further: potency means the concentration at half of the fitted maximal effect; nearly all actives have a fitted effect of over 50% in size
How it was run: as §1

[9] = qHTS assay to identify small molecule antagonists of the estrogen receptor alpha (ER-alpha) signaling pathway using the BG1 cell line in the presence of 0.1 nM 17-beta-estradiol - cell viability counter screen (AID 1259241); further: nearly all actives have a fitted effect of over 40% in size; further: potency means the concentration at half of the fitted maximal effect; on activity change, negative = cytotoxicity: on the % scale 0 is the no-effect control and ±100 the full control effect
How it was run: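 VM7Luc4E2, 4,000 cells/well, phenol red-free medium + 10% charcoal-stripped FBS; 24 hr plating; cpd + 0.1 nM E2 final, 22 hr 37C/5% CO2; CellTiter-Fluor 30 min, fluorescence.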

[10] = molecular target: Estrogen receptor (Homo sapiens) (UniProt P03372); assay: qHTS assay to identify small molecule antagonists of the estrogen receptor alpha (ER-alpha) signaling pathway using the BG1 cell line in the presence of 0.1 nM 17-beta-estradiol (AID 1259244); further: potency means the concentration at half of the fitted maximal effect; nearly all actives have a fitted effect of over 50% in size
Chain of UniProt P03372 (P03372 whole entry, looked up): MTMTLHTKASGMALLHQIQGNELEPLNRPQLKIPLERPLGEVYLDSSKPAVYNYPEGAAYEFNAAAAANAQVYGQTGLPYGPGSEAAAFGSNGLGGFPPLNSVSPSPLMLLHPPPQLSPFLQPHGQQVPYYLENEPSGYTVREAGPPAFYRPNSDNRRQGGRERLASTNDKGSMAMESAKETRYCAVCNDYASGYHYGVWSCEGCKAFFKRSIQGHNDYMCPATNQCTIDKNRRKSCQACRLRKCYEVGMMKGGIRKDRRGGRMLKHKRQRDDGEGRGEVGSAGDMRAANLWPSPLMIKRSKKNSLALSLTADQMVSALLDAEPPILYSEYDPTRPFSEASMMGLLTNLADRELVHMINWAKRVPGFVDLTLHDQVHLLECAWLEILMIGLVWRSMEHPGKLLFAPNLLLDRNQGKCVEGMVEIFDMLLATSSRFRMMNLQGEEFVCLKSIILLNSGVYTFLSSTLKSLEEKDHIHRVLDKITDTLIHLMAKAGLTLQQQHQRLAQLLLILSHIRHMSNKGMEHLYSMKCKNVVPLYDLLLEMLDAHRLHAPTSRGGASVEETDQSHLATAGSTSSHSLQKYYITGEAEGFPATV
How it was run: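 Quantitative high-throughput screen in VM7Luc4E2 cells: compound plus 0.1 nM E2 (final), 22 h, 37C, 5% CO2; ONE-Glo added, 30 min room temperature, luminescence measured.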

[11] = A CellTox Green Cytotoxicity Assay to monitor cytotoxicity in HEK293 cells - 8 hour (AID 1224884); further: potency means the concentration at half of the fitted maximal effect; nearly all actives have a fitted effect of over 35% in size
How it was run: as §4

[12] = A CellTox Green Cytotoxicity Assay to monitor cytotoxicity in HEK293 cells - 16 hour (AID 1224888); further: potency means the concentration at half of the fitted maximal effect; nearly all actives have a fitted effect of over 35% in size
How it was run: as §4

[13] = qHTS RealTime-Glo MT Cell Viability Assay in HEK293 cells - 0 hour (AID 1224880); further: potency means the concentration at half of the fitted maximal effect; nearly all actives have a fitted effect of over 45% in size
How it was run: as §3

[14] = A CellTox Green Cytotoxicity Assay to monitor cytotoxicity in HepG2 cells - 32 hour (AID 1224883)
How it was run: as §2

[15] = A CellTox Green Cytotoxicity Assay to monitor cytotoxicity in HepG2 cells - 24 hour (AID 1224878); further: on the % scale 0 is the no-effect control and ±100 the full control effect; nearly all actives have a fitted effect of over 45% in size
How it was run: as §2

[16] = molecular target: Androgen receptor (Homo sapiens) (UniProt P10275); assay: qHTS assay to identify small molecule antagonists of the androgen receptor (AR) signaling pathway using the MDA cell line in the presence of 0.5 nM R1881 (AID 1259243)
Chain of UniProt P10275 (P10275 whole entry, looked up): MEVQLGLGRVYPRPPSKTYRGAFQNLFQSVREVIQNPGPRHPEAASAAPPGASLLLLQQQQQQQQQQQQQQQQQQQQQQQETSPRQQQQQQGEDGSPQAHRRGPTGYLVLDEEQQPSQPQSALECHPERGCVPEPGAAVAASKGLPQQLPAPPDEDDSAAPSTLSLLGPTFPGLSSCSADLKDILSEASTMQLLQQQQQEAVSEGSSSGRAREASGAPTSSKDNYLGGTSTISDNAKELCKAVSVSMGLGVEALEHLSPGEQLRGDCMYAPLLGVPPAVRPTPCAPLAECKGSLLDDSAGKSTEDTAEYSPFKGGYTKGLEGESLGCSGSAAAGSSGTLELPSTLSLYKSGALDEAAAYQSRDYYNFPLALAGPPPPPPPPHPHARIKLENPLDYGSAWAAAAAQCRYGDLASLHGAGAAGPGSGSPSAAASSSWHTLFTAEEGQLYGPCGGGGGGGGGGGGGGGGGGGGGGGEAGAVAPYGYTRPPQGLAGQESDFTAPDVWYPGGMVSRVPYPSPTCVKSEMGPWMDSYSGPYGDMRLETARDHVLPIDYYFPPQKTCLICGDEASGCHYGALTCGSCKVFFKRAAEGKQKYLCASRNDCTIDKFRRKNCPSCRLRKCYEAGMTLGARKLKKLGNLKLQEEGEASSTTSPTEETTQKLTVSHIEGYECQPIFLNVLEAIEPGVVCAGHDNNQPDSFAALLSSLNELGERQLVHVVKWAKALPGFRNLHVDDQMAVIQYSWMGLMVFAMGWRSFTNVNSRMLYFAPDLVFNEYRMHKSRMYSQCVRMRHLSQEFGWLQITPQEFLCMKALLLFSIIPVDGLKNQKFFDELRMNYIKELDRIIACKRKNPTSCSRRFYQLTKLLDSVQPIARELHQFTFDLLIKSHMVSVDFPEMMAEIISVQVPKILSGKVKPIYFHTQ
How it was run: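 Inhibition of R1881 (0.5 nM final) induced reporter signal was measured in human MDA-kb2 cells; note the MMTV promoter also responds to GR. Exposure lasted 16 hr at 37C.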
Tags describe the fitted curve by direction and shape.

SMILES: S=C=NCc1ccccc1
- Potency [1]: inconclusive: 62.3 µM [cytotoxic, partial curve, poor fit]
- Potency [2]: inconclusive: 55.5 µM [activator, single point]
- Potency [3]: active: 24.8 µM
- Potency [4]: inconclusive: 15.6 µM [cytotoxic, full curve]
- Potency [5]: inactive

SMILES: CCCCCCn1cc[n+](C)c1
- Potency [1]: active: 50 µM
- Potency [6]: inconclusive: 63 µM [activator, single point]
- Potency [3]: inconclusive: 17.5 µM [cytotoxic, partial curve] and inconclusive: 12.8 µM [cytotoxic, full curve] and inconclusive: 15.2 µM [cytotoxic, full curve]
- Potency [4]: inconclusive: 24.9 µM [cytotoxic, partial curve] and inconclusive: 20.3 µM [cytotoxic, single point] and inconclusive: 22.3 µM [cytotoxic, partial curve, poor fit]
- Potency [7]: inconclusive: 55.3 µM [cytotoxic] [middle of 6 runs]

SMILES: C[C@@H]1CC2=CC(=O)CC[C@@H]2[C@H]2CC[C@@]3(C)[C@@H](CC[C@]3(C)O)[C@@H]21
- Potency [1]: inactive
- Potency [3]: inconclusive: 19 µM [cytotoxic, partial curve]

SMILES: CCOCn1c(-c2ccc(Cl)cc2)c(C#N)c(Br)c1C(F)(F)F
- Potency [1]: inconclusive: 6.92 µM [cytotoxic, full curve]
- Potency [6]: inconclusive: 19.5 µM [activator, partial curve, poor fit]
- Potency [8]: inconclusive: 11 µM [cytotoxic, partial curve]
- Potency [3]: active: 4.9 µM
- Potency [4]: active: 19.5 µM
- Potency [9]: inconclusive: 38.6 µM [cytotoxic, partial curve, poor fit]
- Potency [7]: active: 5.45 µM
- Potency [10]: active: 1.93 µM

SMILES: CC1(c2ccc(Oc3ccccc3)cc2)OC(=O)N(Nc2ccccc2)C1=O (centres undefined)
- Potency [1]: inconclusive: 55.3 µM [cytotoxic, single point]
- Potency [6]: inconclusive: 55.3 µM [activator, single point]
- Potency [11]: inconclusive: 55.3 µM [activator, single point]
- Potency [8]: active: 49.3 µM
- Potency [4]: inconclusive: 62 µM [cytotoxic, single point]
- Potency [12]: inconclusive: 55.3 µM [activator, single point]
- Potency [7]: active: 24.5 µM

SMILES: CCOP(=S)(NC(C)C)Oc1ccccc1C(=O)OC(C)C (centres undefined)
- Potency [1]: inconclusive: 38.9 µM [cytotoxic, partial curve, poor fit]
- Potency [13]: inconclusive: 11 µM [rising, full curve]
- Potency [14]: inactive
- Potency [11]: inconclusive: 54.9 µM [activator, partial curve, poor fit]
- Potency [8]: inconclusive: 34.7 µM [cytotoxic, partial curve, poor fit]
- Potency [3]: inconclusive: 49 µM [cytotoxic, partial curve]
- Potency [4]: inconclusive: 49 µM [cytotoxic, single point]
- Potency [9]: inactive
- Potency [7]: inconclusive: 68.6 µM [cytotoxic, partial curve, poor fit]

SMILES: NCC(CC(=O)O)c1ccc(Cl)cc1 (centres undefined)
- activity change, negative = cytotoxic [1]: inactive: -0.345% [at 0.29 µM]
- cytotoxicity [15]: inactive: -3.56% [at 0.29 µM]
- activity change, negative = cytotoxicity [4]: inactive: 1.53% [at 0.29 µM]

SMILES: CCCC[N+]1(C)CCCC1
- Potency [1]: inconclusive: 55.3 µM [cytotoxic, single point]
- Potency [8]: inconclusive: 62 µM [cytotoxic, single point]

SMILES: CC(C)N(C(=O)COc1nnc(C(F)(F)F)s1)c1ccc(F)cc1
- Potency [1]: inconclusive: 21.9 µM [cytotoxic, partial curve]
- Potency [8]: inconclusive: 12.3 µM [cytotoxic, full curve]
- Potency [3]: inconclusive: 34.7 µM [cytotoxic, partial curve]
- Potency [4]: active: 34.7 µM

SMILES: COC(=O)N(C(=O)N1COC2(C(=O)OC)Cc3cc(Cl)ccc3C2=N1)c1ccc(OC(F)(F)F)cc1 (centres undefined)
- Potency [1]: inactive
- Potency [3]: inconclusive: 19 µM [cytotoxic, partial curve]
- Potency [4]: inconclusive: 10.7 µM [cytotoxic, partial curve, poor fit]
- Potency [16]: inconclusive: 33.5 µM [inhibitor, single point]
